According to publication PMC3709894:
No constants are given. Whether binding was seen depends on the method and setting. In cells and extracts the contact can be indirect. Some binding calls cover weakened binding; strength is not graded here. For some assays here: Where a sequence is shown, tags or fusion partners need not be part of it.

What was measured:
[1] = target: T1, middle part (173–450 aa) of Rad21 (Rad21 MP), expressed in 293 T cells (human) (UniProt O60216); assay: co-IP; 293 T cells transfected with differently tagged (Flag, HA) Rad21 NT, MP or CT fragments; IP from cell lysates 40 h after transfection; blots of the other copy and of endogenous proteins
T1 sequence: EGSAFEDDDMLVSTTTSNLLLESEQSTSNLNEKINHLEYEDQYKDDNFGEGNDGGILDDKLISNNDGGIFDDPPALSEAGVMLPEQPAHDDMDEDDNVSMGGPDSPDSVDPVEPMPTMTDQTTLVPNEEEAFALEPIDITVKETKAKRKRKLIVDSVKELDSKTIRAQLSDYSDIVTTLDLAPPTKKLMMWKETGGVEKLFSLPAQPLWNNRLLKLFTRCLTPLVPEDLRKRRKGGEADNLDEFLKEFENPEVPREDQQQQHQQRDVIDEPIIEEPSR

[2] = target: T2, N-terminal fragment (1–172 aa) of Rad21 (Rad21 NT), expressed in 293 T cells (human) (UniProt O60216); assay: as above
T2 sequence: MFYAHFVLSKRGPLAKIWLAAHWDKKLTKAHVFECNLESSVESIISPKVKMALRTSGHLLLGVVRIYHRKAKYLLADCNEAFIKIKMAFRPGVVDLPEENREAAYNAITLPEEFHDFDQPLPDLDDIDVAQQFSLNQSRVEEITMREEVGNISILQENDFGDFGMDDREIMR

[3] = target: T3, Myc-Rad21 WT in pCS2MT (human) (UniProt O60216); assay: co-IP; 293 T cells transfected with Myc-Rad21 WT or mutants; IP from whole cell lysate, blots of endogenous cohesin subunits including endogenous Rad21
T3 sequence: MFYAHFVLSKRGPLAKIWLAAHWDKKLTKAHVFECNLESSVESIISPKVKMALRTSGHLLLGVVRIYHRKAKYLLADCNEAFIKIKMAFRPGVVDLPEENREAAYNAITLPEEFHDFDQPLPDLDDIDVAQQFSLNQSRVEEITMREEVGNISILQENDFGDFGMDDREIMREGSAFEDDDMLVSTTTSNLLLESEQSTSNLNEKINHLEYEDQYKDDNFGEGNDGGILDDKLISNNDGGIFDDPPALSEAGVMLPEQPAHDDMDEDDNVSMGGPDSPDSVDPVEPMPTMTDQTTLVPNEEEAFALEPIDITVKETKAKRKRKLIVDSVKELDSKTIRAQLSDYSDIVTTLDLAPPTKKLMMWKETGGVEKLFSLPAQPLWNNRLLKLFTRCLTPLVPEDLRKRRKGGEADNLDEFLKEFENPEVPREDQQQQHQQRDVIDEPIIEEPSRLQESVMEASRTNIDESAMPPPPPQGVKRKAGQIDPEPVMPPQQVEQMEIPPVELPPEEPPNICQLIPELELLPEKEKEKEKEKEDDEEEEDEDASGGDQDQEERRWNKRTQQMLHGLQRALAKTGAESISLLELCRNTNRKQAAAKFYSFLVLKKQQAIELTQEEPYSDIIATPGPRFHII

[4] = target: T4, Myc-Rad21 TM (L385A F389A T390A) in pCS2MT (human) (UniProt O60216); assay: as above
T4 sequence: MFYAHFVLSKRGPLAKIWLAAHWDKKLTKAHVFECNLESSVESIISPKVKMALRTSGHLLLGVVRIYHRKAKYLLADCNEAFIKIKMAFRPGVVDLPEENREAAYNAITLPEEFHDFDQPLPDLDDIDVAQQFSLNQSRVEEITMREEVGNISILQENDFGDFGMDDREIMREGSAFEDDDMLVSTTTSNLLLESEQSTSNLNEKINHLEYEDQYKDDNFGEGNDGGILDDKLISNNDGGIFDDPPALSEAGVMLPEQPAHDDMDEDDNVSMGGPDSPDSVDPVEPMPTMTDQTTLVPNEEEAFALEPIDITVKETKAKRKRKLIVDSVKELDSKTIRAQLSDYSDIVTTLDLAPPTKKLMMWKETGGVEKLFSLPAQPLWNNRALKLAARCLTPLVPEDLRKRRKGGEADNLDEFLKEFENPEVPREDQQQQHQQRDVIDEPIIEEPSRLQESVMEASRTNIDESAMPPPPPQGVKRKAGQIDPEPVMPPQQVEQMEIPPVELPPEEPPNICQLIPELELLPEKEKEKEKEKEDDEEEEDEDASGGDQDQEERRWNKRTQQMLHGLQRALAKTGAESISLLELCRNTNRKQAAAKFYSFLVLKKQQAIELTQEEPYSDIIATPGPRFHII

[5] = target: T5, Myc-Rad21 Del (del(383–392 aa)) in pCS2MT (human) (UniProt O60216); assay: as above
T5 sequence: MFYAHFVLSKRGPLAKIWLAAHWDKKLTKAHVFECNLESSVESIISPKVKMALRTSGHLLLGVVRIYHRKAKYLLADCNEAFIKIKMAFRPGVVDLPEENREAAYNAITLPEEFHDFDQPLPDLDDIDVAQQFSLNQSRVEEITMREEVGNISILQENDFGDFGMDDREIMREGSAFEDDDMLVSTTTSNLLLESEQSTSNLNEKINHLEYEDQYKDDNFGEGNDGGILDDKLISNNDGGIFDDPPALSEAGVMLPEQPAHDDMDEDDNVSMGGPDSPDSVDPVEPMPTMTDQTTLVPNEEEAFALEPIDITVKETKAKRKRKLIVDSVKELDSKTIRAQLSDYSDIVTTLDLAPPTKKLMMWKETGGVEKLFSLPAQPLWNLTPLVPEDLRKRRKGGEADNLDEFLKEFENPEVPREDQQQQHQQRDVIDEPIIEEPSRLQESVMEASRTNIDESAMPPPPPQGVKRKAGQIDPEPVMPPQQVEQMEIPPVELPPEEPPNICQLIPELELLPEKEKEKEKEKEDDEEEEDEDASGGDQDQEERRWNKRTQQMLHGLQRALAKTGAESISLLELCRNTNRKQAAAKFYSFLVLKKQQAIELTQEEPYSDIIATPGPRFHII

- binding [1]: no binding
- binding [2]: no binding
- binding [3]: binds
- binding [4]: binds
- binding [5]: binds
B1: endogenous Smc1 (protein, UniProt Q14683 1-1233)
chain: MGFLKLIEIENFKSYKGRQIIGPFQRFTAIIGPNGSGKSNLMDAISFVLGEKTSNLRVKTLRDLIHGAPVGKPAANRAFVSMVYSEEGAEDRTFARVIVGGSSEYKINNKVVQLHEYSEELEKLGILIKARNFLVFQGAVESIAMKNPKERTALFEEISRSGELAQEYDKRKKEMVKAEEDTQFNYHRKKNIAAERKEAKQEKEEADRYQRLKDEVVRAQVQLQLFKLYHNEVEIEKLNKELASKNKEIEKDKKRMDKVEDELKEKKKELGKMMREQQQIEKEIKEKDSELNQKRPQYIKAKENTSHKIKKLEAAKKSLQNAQKHYKKRKGDMDELEKEMLSVEKARQEFEERMEEESQSQGRDLTLEENQVKKYHRLKEEASKRAATLAQELEKFNRDQKADQDRLDLEERKKVETEAKIKQKLREIEENQKRIEKLEEYITTSKQSLEEQKKLEGELTEEVEMAKRRIDEINKELNQVMEQLGDARIDRQESSRQQRKAEIMESIKRLYPGSVYGRLIDLCQPTQKKYQIAVTKVLGKNMDAIIVDSEKTGRDCIQYIKEQRGEPETFLPLDYLEVKPTDEKLRELKGAKLVIDVIRYEPPHIKKALQYACGNALVCDNVEDARRIAFGGHQRHKTVALDGTLFQKSGVISGGASDLKAKARRWDEKAVDKLKEKKERLTEELKEQMKAKRKEAELRQVQSQAHGLQMRLKYSQSDLEQTKTRHLALNLQEKSKLESELANFGPRINDIKRIIQSREREMKDLKEKMNQVEDEVFEEFCREIGVRNIREFEEEKVKRQNEIAKKRLEFENQKTRLGIQLDFEKNQLKEDQDKVHMWEQTVKKDENEIEKLKKEEQRHMKIIDETMAQLQDLKNQHLAKKSEVNDKNHEMEEIRKKLGGANKEMTHLQKEVTAIETKLEQKRSDRHNLLQACKMQDIKLPLSKGTMDDISQEEGSSQGEDSVSGSQRISSIYAREALIEIDYGDLCEDLKDAQAEEEIKQEMNTLQQKLNEQQSVLQRIAAPNMKAMEKLESVRDKFQETSDEFEAARKRAKKAKQAFEQIKKERFDRFNACFESVATNIDEIYKALSRNSSAQAFLGPENPEEPYLDGINYNCVAPGKRFRPMDNLSGGEKTVAALALLFAIHSYKPAPFFVLDEIDAALDNTNIGKVANYIKEQSTCNFQAIVISLKEEFYTKAESLIGVYPEQGDCVISKVLTFDLTKYPDANPNPNEQ
